Laboratory results published in patent publication US20250145680A1 (REMD BIOTHERAPEUTICS, published 2025).

T1: Type I IFN receptor (IFNAR) (UniProt P17181 28-557; P48551 27-515, limits assumed)
T1 sequence (looked up) 1: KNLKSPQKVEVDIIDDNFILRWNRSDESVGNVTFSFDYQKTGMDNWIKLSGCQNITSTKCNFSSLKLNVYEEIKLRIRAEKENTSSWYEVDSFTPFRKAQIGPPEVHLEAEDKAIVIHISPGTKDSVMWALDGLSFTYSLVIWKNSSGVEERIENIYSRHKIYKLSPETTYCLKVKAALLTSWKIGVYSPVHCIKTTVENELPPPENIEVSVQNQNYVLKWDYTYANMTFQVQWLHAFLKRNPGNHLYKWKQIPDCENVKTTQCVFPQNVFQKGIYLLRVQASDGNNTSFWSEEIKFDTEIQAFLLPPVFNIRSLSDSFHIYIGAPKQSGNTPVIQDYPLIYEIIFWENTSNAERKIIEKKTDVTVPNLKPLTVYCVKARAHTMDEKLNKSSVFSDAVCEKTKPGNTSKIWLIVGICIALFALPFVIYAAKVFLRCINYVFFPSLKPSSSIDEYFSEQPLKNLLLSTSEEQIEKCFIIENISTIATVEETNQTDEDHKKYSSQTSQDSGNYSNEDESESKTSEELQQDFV
T1 sequence (looked up) 2: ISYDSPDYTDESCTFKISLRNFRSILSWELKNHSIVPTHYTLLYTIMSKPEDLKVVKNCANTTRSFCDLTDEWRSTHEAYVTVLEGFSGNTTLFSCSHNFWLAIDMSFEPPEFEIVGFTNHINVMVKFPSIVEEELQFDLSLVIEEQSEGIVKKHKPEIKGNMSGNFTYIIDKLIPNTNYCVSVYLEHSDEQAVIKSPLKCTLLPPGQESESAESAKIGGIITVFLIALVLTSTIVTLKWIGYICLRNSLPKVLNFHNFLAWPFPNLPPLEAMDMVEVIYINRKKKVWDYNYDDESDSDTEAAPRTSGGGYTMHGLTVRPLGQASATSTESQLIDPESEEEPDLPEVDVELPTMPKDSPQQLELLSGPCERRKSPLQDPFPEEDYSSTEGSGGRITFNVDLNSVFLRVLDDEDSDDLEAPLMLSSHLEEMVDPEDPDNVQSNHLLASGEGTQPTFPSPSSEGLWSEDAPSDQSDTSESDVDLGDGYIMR

B1: anti-PD-L1 Ab-con-IFN-α fusion molecule (FP-14), con-IFN-α (R150A), G8 linker (other)
light: DIQMTQSPSSVSASVGDRVTITCKTSQDVNTAVAWYQQKPGQAPRLLIYWASTRHTGVPDRFSGSGSGTDFTLTISSLQAEDVAVYYCQQHYNTPLTFGGGTKLEIKRTVAAPSVFIFPPSDEQLKSGTASVVCLLNNFYPREAKVQWKVDNALQSGNSQESVTEQDSKDSTYSLSSTLTLSKADYEKHKVYACEVTHQGLSSPVTKSFNRGEC
heavy: QMQLVQSGAEVKKTGSSVKVSCKASGYTFTSYSINWVRQAPGKGLEWVAYFYVGNGYTDYNEKFKGRVTMTRDTSTSTVYMELSSLRSEDTAVYYCARGGLPYYFDYWGQGTLVTVSSASTKGPSVFPLAPCSRSTSESTAALGCLVKDYFPEPVTVSWNSGALTSGVHTFPAVLQSSGLYSLSSVVTVPSSSLGTKTYTCNVDHKPSNTKVDKRV[human IgG4 Fc with S228P (EU numbers) not printed]GGGGGGGGCDLPQTHSLGNRRALILLAQMRRISPFSCLKDRHDFGFPQEEFDGNQFQKAQAISVLHEMIQQTFNLFSTKDSSAAWDESLLEKFYTELYQQLNDLEACVIQEVGVEETPLMNVDSILAVKKYFQRITLYLTEKKYSPCAWEVVRAEIMASFSLSTNLQERLRRKE
B2: anti-PD-L1 Ab-con-IFN-α fusion molecule (FP-15), con-IFN-α (R150A), (G4S)x3 linker (other)
light: B1 light
heavy: QMQLVQSGAEVKKTGSSVKVSCKASGYTFTSYSINWVRQAPGKGLEWVAYFYVGNGYTDYNEKFKGRVTMTRDTSTSTVYMELSSLRSEDTAVYYCARGGLPYYFDYWGQGTLVTVSSASTKGPSVFPLAPCSRSTSESTAALGCLVKDYFPEPVTVSWNSGALTSGVHTFPAVLQSSGLYSLSSVVTVPSSSLGTKTYTCNVDHKPSNTKVDKRV[human IgG4 Fc with S228P (EU numbers) not printed]GGGGSGGGGSGGGGSCDLPQTHSLGNRRALILLAQMRRISPFSCLKDRHDFGFPQEEFDGNQFQKAQAISVLHEMIQQTFNLFSTKDSSAAWDESLLEKFYTELYQQLNDLEACVIQEVGVEETPLMNVDSILAVKKYFQRITLYLTEKKYSPCAWEVVRAEIMASFSLSTNLQERLRRKE
B3: anti-PD-L1 Ab-con-IFN-α fusion molecule (FP-16), con-IFN-α (A146D), G8 linker (other)
light: B1 light
heavy: QMQLVQSGAEVKKTGSSVKVSCKASGYTFTSYSINWVRQAPGKGLEWVAYFYVGNGYTDYNEKFKGRVTMTRDTSTSTVYMELSSLRSEDTAVYYCARGGLPYYFDYWGQGTLVTVSSASTKGPSVFPLAPCSRSTSESTAALGCLVKDYFPEPVTVSWNSGALTSGVHTFPAVLQSSGLYSLSSVVTVPSSSLGTKTYTCNVDHKPSNTKVDKRV[human IgG4 Fc with S228P (EU numbers) not printed]GGGGGGGGCDLPQTHSLGNRRALILLAQMRRISPFSCLKDRHDFGFPQEEFDGNQFQKAQAISVLHEMIQQTFNLFSTKDSSAAWDESLLEKFYTELYQQLNDLEACVIQEVGVEETPLMNVDSILAVKKYFQRITLYLTEKKYSPCAWEVVRDEIMRSFSLSTNLQERLRRKE
B4: anti-PD-L1 Ab-con-IFN-α fusion molecule (FP-17), con-IFN-α (A146D), (G4S)x3 linker (other)
light: B1 light
heavy: QMQLVQSGAEVKKTGSSVKVSCKASGYTFTSYSINWVRQAPGKGLEWVAYFYVGNGYTDYNEKFKGRVTMTRDTSTSTVYMELSSLRSEDTAVYYCARGGLPYYFDYWGQGTLVTVSSASTKGPSVFPLAPCSRSTSESTAALGCLVKDYFPEPVTVSWNSGALTSGVHTFPAVLQSSGLYSLSSVVTVPSSSLGTKTYTCNVDHKPSNTKVDKRV[human IgG4 Fc with S228P (EU numbers) not printed]GGGGSGGGGSGGGGSCDLPQTHSLGNRRALILLAQMRRISPFSCLKDRHDFGFPQEEFDGNQFQKAQAISVLHEMIQQTFNLFSTKDSSAAWDESLLEKFYTELYQQLNDLEACVIQEVGVEETPLMNVDSILAVKKYFQRITLYLTEKKYSPCAWEVVRDEIMRSFSLSTNLQERLRRKE
B5: anti-PD-L1 Ab-con-IFN-α fusion molecule (FP-18), con-IFN-α (A146D and R150A), G8 linker (other)
light: B1 light
heavy: QMQLVQSGAEVKKTGSSVKVSCKASGYTFTSYSINWVRQAPGKGLEWVAYFYVGNGYTDYNEKFKGRVTMTRDTSTSTVYMELSSLRSEDTAVYYCARGGLPYYFDYWGQGTLVTVSSASTKGPSVFPLAPCSRSTSESTAALGCLVKDYFPEPVTVSWNSGALTSGVHTFPAVLQSSGLYSLSSVVTVPSSSLGTKTYTCNVDHKPSNTKVDKRV[human IgG4 Fc with S228P (EU numbers) not printed]GGGGGGGGCDLPQTHSLGNRRALILLAQMRRISPFSCLKDRHDFGFPQEEFDGNQFQKAQAISVLHEMIQQTFNLFSTKDSSAAWDESLLEKFYTELYQQLNDLEACVIQEVGVEETPLMNVDSILAVKKYFQRITLYLTEKKYSPCAWEVVRDEIMASFSLSTNLQERLRRKE
B6: anti-PD-L1 Ab-con-IFN-α (R150A) fusion molecule (FP-07) (other)
light: B1 light
heavy: QMQLVQSGAEVKKTGSSVKVSCKASGYTFTSYSINWVRQAPGKGLEWVAYFYVGNGYTDYNEKFKGRVTMTRDTSTSTVYMELSSLRSEDTAVYYCARGGLPYYFDYWGQGTLVTVSSASTKGPSVFPLAPCSRSTSESTAALGCLVKDYFPEPVTVSWNSGALTSGVHTFPAVLQSSGLYSLSSVVTVPSSSLGTKTYTCNVDHKPSNTKVDKRV[human IgG4 Fc with S228P (EU numbers) not printed]CDLPQTHSLGNRRALILLAQMRRISPFSCLKDRHDFGFPQEEFDGNQFQKAQAISVLHEMIQQTFNLFSTKDSSAAWDESLLEKFYTELYQQLNDLEACVIQEVGVEETPLMNVDSILAVKKYFQRITLYLTEKKYSPCAWEVVRAEIMASFSLSTNLQERLRRKE
B7: anti-PD-L1 Ab-con-IFN-α (A146D) fusion molecule (FP-08) (other)
light: B1 light
heavy: QMQLVQSGAEVKKTGSSVKVSCKASGYTFTSYSINWVRQAPGKGLEWVAYFYVGNGYTDYNEKFKGRVTMTRDTSTSTVYMELSSLRSEDTAVYYCARGGLPYYFDYWGQGTLVTVSSASTKGPSVFPLAPCSRSTSESTAALGCLVKDYFPEPVTVSWNSGALTSGVHTFPAVLQSSGLYSLSSVVTVPSSSLGTKTYTCNVDHKPSNTKVDKRV[human IgG4 Fc with S228P (EU numbers) not printed]CDLPQTHSLGNRRALILLAQMRRISPFSCLKDRHDFGFPQEEFDGNQFQKAQAISVLHEMIQQTFNLFSTKDSSAAWDESLLEKFYTELYQQLNDLEACVIQEVGVEETPLMNVDSILAVKKYFQRITLYLTEKKYSPCAWEVVRDEIMRSFSLSTNLQERLRRKE
B8: anti-PD-L1 Ab-con-IFN-α (A146K) fusion molecule (FP-09) (other)
light: B1 light
heavy: QMQLVQSGAEVKKTGSSVKVSCKASGYTFTSYSINWVRQAPGKGLEWVAYFYVGNGYTDYNEKFKGRVTMTRDTSTSTVYMELSSLRSEDTAVYYCARGGLPYYFDYWGQGTLVTVSSASTKGPSVFPLAPCSRSTSESTAALGCLVKDYFPEPVTVSWNSGALTSGVHTFPAVLQSSGLYSLSSVVTVPSSSLGTKTYTCNVDHKPSNTKVDKRV[human IgG4 Fc with S228P (EU numbers) not printed]CDLPQTHSLGNRRALILLAQMRRISPFSCLKDRHDFGFPQEEFDGNQFQKAQAISVLHEMIQQTFNLFSTKDSSAAWDESLLEKFYTELYQQLNDLEACVIQEVGVEETPLMNVDSILAVKKYFQRITLYLTEKKYSPCAWEVVRKEIMRSFSLSTNLQERLRRKE
B9: anti-PD-L1 Ab-con-IFN-α fusion molecule (FP-06) (other)
light: B1 light
heavy: QMQLVQSGAEVKKTGSSVKVSCKASGYTFTSYSINWVRQAPGKGLEWVAYFYVGNGYTDYNEKFKGRVTMTRDTSTSTVYMELSSLRSEDTAVYYCARGGLPYYFDYWGQGTLVTVSSASTKGPSVFPLAPCSRSTSESTAALGCLVKDYFPEPVTVSWNSGALTSGVHTFPAVLQSSGLYSLSSVVTVPSSSLGTKTYTCNVDHKPSNTKVDKRV[human IgG4 Fc with S228P (EU numbers) not printed]CDLPQTHSLGNRRALILLAQMRRISPFSCLKDRHDFGFPQEEFDGNQFQKAQAISVLHEMIQQTFNLFSTKDSSAAWDESLLEKFYTELYQQLNDLEACVIQEVGVEETPLMNVDSILAVKKYFQRITLYLTEKKYSPCAWEVVRAEIMRSFSLSTNLQERLRRKE

target: T1, Type I IFN receptor (IFNAR); experiment: cell-based or functional assay

Binder	EC50 ratio1 (EC50 of FP/EC50 of IFN-α2b) on PD-L1-negative cells; IFN-α reporter assay (SEAP), PD-L1 blocked with REMD290 [fold]
B1	1580
B2	1440
B3	37.6
B4	15
B5	16100
B6	8440
B7	209
B8	6070
B9	11.8

target: T1, Type I IFN receptor (IFNAR); experiment: cell-based or functional assay; remark: another data set of the same source

Binder	EC50 (pM) on PD-L1-negative cells; IFN-α reporter assay; sample stored at 4° C. for 80 days [pM]	EC50 (pM) on PD-L1-negative cells; IFN-α reporter assay; sample stored at -80° C. for 80 days [pM]
B6	2960	2780
B7	57.6	81.4
B8	1600	2040
